# Measurements: the supplement of paper PMC10681739
# The full ranking holds about 2,700 sequences; the median of “arbitrary fluorescence units” is about 4,100, and the highest 2% start at about 54,000. The list shows a part of the results.
# Molecular target: T1, ETS1 (UniProt P14921)
# T1 sequence: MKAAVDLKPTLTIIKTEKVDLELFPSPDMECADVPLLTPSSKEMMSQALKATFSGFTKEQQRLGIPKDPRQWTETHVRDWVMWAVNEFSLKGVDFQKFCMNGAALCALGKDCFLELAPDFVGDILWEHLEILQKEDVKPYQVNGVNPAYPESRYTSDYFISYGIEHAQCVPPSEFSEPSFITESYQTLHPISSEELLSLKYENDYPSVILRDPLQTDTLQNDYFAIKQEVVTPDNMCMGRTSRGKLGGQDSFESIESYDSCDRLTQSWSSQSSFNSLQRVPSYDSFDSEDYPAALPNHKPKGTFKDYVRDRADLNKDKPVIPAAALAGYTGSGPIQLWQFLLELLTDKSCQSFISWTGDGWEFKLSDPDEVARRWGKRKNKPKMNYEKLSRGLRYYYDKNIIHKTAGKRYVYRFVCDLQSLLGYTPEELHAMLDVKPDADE
# Test: ETS1 binding intensity (PBM fluorescence) (arbitrary fluorescence units); higher = stronger binding
# Settings: ETS1 concentration 10 nM
# Procedure: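 gcPBM on wild-type 36-bp genomic probes with two neighbouring ETS1 sites (4-24 bp apart). Recombinant human ETS1 (10 nM) was detected with anti-ETS1 antibody fluorescence. Values are medians over 3 replicate spots. The probes sit in constant array flanks that are not printed.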
row,Sequence,ETS1 binding intensity
1,GTCTGTTAGCACAGGAAACAGGATGGGTGTCAGTGA,1320
2,GTCACCTTTCCTGTCAGCACTTTGGCTTCCTCACCC,7800
3,ATAAGGGAAATGGGTACCTCCCGAGGAGGAAGTTTA,377
4,AGATCGCTGGCTTCCTGTGTTTTTCCTGGACTCAGG,14800
5,GAGGGAGGTGCAGGAAAGTCGGAAGGCATTAGGGTA,179
6,ATTACTGCTTCCTGTTTTTAAACAGGATTGAAAGGA,23900
7,GGGGCGGGGCCCGGAAGAGCAGGATGGCGGCGCGGG,784
8,TTCTTGCATTTCCGAGTACTCTAAGGAAATCATTGA,1180
9,TGCAGTGTTCCGCTGAGCTCAAGTTCTTCCTGTGCT,589
10,CCAGCCCCATTTCCCATGAGGCTTCCTGTGCTTGGA,3130
11,AGCCCTTCCTGCTTCTTGAAATACTCATATCCTCTG,14200
12,ACCAGTGGGGGATGTGCATGACCAGGAAACCCCCAG,176
13,TCACCATAGGAAACATGAAGTCACATCCTGGTCAAA,597
14,TAGTGCTTCCGGGTCACCCCGGCCCAGGAAGGCGCA,24900
15,TAAGTGCTTTACTTCCTACTGGGAAATGGCTTGACT,1530
16,GCCCGCGCCCAGGAAGGAGGGCTTCCGCCCGGGTGA,2470
17,CAGCTACACCACTTCCTCAGCTTCCTCCATAGTGAG,3940
18,GAAGGTCGTAGCAGGAAGAAGGAAGTATTCTCTGGA,844
19,CGACCACTTCCGTGTCCACGTCACCTTCCGCGACCA,16700
20,TTGTGCCGCTTCCGCAAGAAGGTTTCCTGGCCTGTT,9140
21,AAACATCTGGGGCGGAAACGGAAGCATGGCCGCAGC,3700
22,AGAAACGGAAAGAAAGTGACCCCTCCCTTCCTTTCA,175
23,CTGCACGTTGCAAGGATATCGGATATGACTAACATG,408
24,TGACGGGAGGCTTCCCGGAGAAGGAAGTGGGGTGCG,252
25,GTTCATTTATGCAGGAAGAGGAAACCTAGCAAGCTC,359

row,Sequence,ETS1 binding intensity
1,GACAGGAAACGGGGTCCCTGGCGCTAGGTTCCGGCC,6680
2,AAAACACACATCCCTAAAGAAACAGGAAGCCACCAT,1110
3,ACACATCCCAGCTATGCTCCCCTCTAGCGGATGCTG,264
4,TTTGAAATCACAGCTTCCTTCCTGTTGCAACTTAGC,4360
5,TTAGGCACTTCCTTTCCCCCTTCCTTGCACCTGTTC,15100
6,GCGTTGAGTCGTTTCCTGCCGGATGACCCGACCCTT,14500
7,AGGCAGGAAACCCGGCCGTCCTCAAGCAGGAAAGCT,1160
8,AAAGGCACTTCCTATTCAGTAATGGGAAGTGGGCAA,10800
9,GCAAAACTACAGGGGATGTTTCCTGTGCGCCTCCAG,3120
10,GCCTTCAATTTCCGTAGGGAACCTTCCTCCCAGTGA,6860
11,CAGGCCGGAAGTACGTGAGAGGAGACTTCCGGCCAC,31200
12,GATGGTTCCGCTCTACGCGGGGTGACGGGAAACCGC,3230
13,CATTCAGGAAATGTGGTACACAAAGCAGGATGTATA,1900
14,AACCATGAGCAGGAAGGCTATTTCCTCCTTAACTAT,1070
15,AACGGACGGAAAGGCTTCTTTCACCGGAAGCACAGA,2270
16,TCCAGAGGAAACTGCCAGGACCACAGTTCCTGTTGC,373
17,CCCCGGTCCGCTTCCTGTGGCTTCCGCTCTGGCCAT,21700
18,ACAGCTTCCGGGGGCGAAGGACTGGGTTTCCTGCCC,35700
19,ACCAGGAGGAAGTCGGCTCCGGGGCGGAACCTGGAC,1740
20,AGGAGTTTCCTGTCCCTCTGGGTGGGGGAAGTAGGC,24500
21,ACCCCCTGGCGGATGCTGTGTGTTTCCTGTGCTTAG,3420
22,CAGGAGGAAGCGGCGAGTCAGCGCGGCGGAAAGGGC,240
23,AGGACAGGAAACTGGAGATGATTAGACATCCTTTAT,4600
24,GTGACAGGATGGTCTGGCGACCACATTTCCCGGCAG,328
25,TCCTGGTCTCTCTTCCTGCAGGATGTACCCTGCCCA,2160

row,Sequence,ETS1 binding intensity
1,GAGAGAATACCGGAAGCAAGCAGGAAATAGCCACTA,26100
2,CTTTTCCCAGGAAGCCATTTCATTTCCTTTCATTAG,1800
3,TACAAGCAGGATAATTGGACAGGGTTTCCGGCAACG,673
4,GCCCCCCAGCTTCCTTCCTGGATCTGTCTATTGTTG,4060
5,GCGGCCTACGCCGGAAGAACGGAAATAAGAGCTTCG,6560
6,CGGACGGAAGCTCCCGCCCTGCGGTGCCGGATGGCC,892
7,ACACATCCTGAATTCTGAAAGAATGTGCTTCCTGAA,15600
8,GTCACTTCCGGCCCCGAGTTCGAGCCGCTTCCGGGT,115000
9,TCACAGTTCCGCTTGGCTAGAGGGACTTCCTGAAAC,6230
10,CAGCGACCCGGAAACACTCGGCCCGGAAATGATGTC,4940
11,ACCGCCCGGAAGTGACGCGCCCGCGCATCCGGCCAC,19800
12,AAGTCAGGAAACAACAGATGCTGGAGAGGATGTGGA,368
13,AGTGGGGAGGAAGAAAAAGCTGGCTTCCTGCAAGCC,513
14,AACGCCTTGGAACAGGAAGGAAGCAATGACTCAAAG,693
15,GAGGCCAGGAAGCGGCGGGAGCTACTTCCCCTGATC,1860
16,AGCCTCGACTTCCTGGGCCAAGCCATCCTGCCGCCT,9090
17,GCCTGCCACATCCTGGCCATCTACTTCCTCTTAAAC,14700
18,TCACTTCCTGAACACGCTTTGGCTGGCTTTCCTGTG,26100
19,CAGGAGGAAGTGCTGCCTCATGCAGGACGGAAGGGC,1090
20,TGCGGTGGCAGCTTCCTTGCGGAAGTGGTGACCGTG,1710
21,AAACGTCACTTCCTGCGACACGCAGGAAACAAAGGC,28100
22,GGGCATCCGCAGCGAGTCCCTCCCCGGTTTCCGGGC,7180
23,CTAACGCAACTCAGGAAACTTCCTTTCATTAATTTT,639
24,CACATTTGCAGAGCTTCCTTCCGGGACTTCGTGGCA,2240
25,AGTAGGTTGCATCCTGTTTACACATCCTGTTAGGAC,19800

row,Sequence,ETS1 binding intensity
1,TTAAGCAGTTTCCTGGTCTGGCAGGATTTGTTATCT,4500
2,AACGGGAAGCGAGGCCTCATTGGCCAGTATCCGCCT,184
3,CGGCGCAGAGGCAGGAAGAGGAAGCGGCACCCGCTT,890
4,ACAAAGGAAGTACTCAGTTACAATTACCTTCCTGTT,1080
5,TCCAGGCTGATGCTTCCTCAGGAAGGACATGGGGGC,297
6,GCTGTGCGCTCCCGGAAGCATTCCGGGCGGAGGGAA,1860
7,GCAGGAGACGGAAGATGCATGGGTTTCCTGGCGCGC,424
8,TGACGCGCCCACCGGAAACGGAAGTAGTCGACTCGA,21500
9,TTTGCAGGAAGTTAAGCTTCACGATGGGAAATGCCT,2510
10,TGGCACTTGACATCCTGTTGACATCCGTCTCCCCTC,19700
11,GCCCCAGGAAGGGCCCACAGGCTGCAGGAAGAGCAC,202
12,TCTAGAAGGAAATGGGTTAGCTTATTTCCTACCTCT,465
13,GACGCGAAACTTTCCGGGCGCTTCCTCCCGCGGTCC,1330
14,GCACAGGAAGCCGGGCCAGCGGCCTCCGGAAGCCTC,3490
15,GCCGCTTCCTGTCATTAAGCATCTCAGAGGAAGCAG,51200
16,CACCGGAACGATTCTAGCTGCTCTTGCCGGAAGTGT,897
17,AGAGGCATGGGGGATGTGCTCTATCCTGTTTTGTCA,340
18,CCACTTCCCCGGGTGCCCAGGAGTGAACATCCGGGT,6160
19,GGCCGGAAGCTACTCAGGCAGCCTCTGTTTCCTCAC,4530
20,CCTGCCACTTCCTGTGGGGTGCATATCCTGTTTCAG,33800
21,TATACATGGTTCCGGCTTGACGCGGATACCTAGTGA,1870
22,TTACCTTCCTGCTCCCTGAGAGCAACAGGAAACACT,7920
23,CACAGAGAAGGAAACGAGGAGGAGGATGTCTCACCG,233
24,TAGGCAGCCCCACATCCTGCTTCCTCCCTGTGCTGA,10300
25,ACAGGAGCTACTTCCTGAACAGGATGAAGTATTTTG,9010

row,Sequence,ETS1 binding intensity
1,TGGCAGTTAGAACAGGAAGGAAGTCAATGAGAAAAA,1070
2,CAACGGCAGCTTCCTGCGGCGCCGGAAACGCTTCAA,12100
3,AGATATTGTGTACTTCCCCTTCCTGTTGTGGTTGGC,4130
4,GCTTTTCATACTTCCTGCTTGAGGAAGCTGCTACTG,27000
5,TTACACTACTTCCGCCGCCTCACTTCCGGTGACGCG,34100
6,AAAAACCACTTCCGCGTTCGTCACTTCCGCTGCCGG,23700
7,AATGGCAACTTCCTGATTCAGTGCTTCCTGATTGTG,16000
8,CCGGGAGCTCCGGATGCAGACAGGAAGTGGGCAGGG,9950
9,CAAATCAGGAAGAGGACCCTCAACAGGAACTGAATC,234
10,CTCACATCCGTTTGTGGCTGCCGAGTGCTTCCTGGG,17100
11,CTGGGCGGGGCGGAAAAAATACTTCCCGTCTCTCCT,1470
12,CTGAGGGAAGTTTGCCTGAGACCTGGCTTCCTGCTC,365
13,GAAGCGGAAATCAATCAGGCTGTCACCCTTCCTGTA,3710
14,GGGCGCACTTCCGCGGCCGCTCTAGGAAGGGAGCGA,7340
15,TTTCTGTCCGTTTCCGACAAACTTCCCGCGCTCTTC,2630
16,CCCCAGGAAGAGCGCGCCGGGCGCCGACTTCCCCTG,225
17,CAACCGAAAACATCCCGTGCCGGAAGCGCGTCATCG,4780
18,CCCGCCCACCTTTCCTGGGGCGGATGCGTTCCCGCA,509
19,TAGGCATGTATTTCCTCAAACTTCCTCATACTTGTT,1460
20,TGGGCGGCCGGATGAGGTCAGAGCGGAAGGCGCGGC,2260
21,TTCCACTCTGATTTCCTGTACTTCCCAAGGTCTGCC,13400
22,GGCGAGAGGAGGAAGCACCGGCGGAAACCCGAGGGA,464
23,AACTGACAGGAAGAGGCGGGGCCCTTCCTGTGGCGC,2430
24,TACATCATCCTGTACAGAGGGAGTCAGGAAAAGGAA,3210
25,TCGGCGCCGGAAGTGAGTGAGCATTTCCGGCAGCCA,22300
